Laboratory results from the supplement of paper PMC10369915.
The other results are listed elsewhere or left out. No stated cut-off is given here; in the data, active = 3.2 or more and inactive = the rest. Most of these values are background signal.

Experiments:
Experiment in all cases: enrichment score (SH2-bound / input frequency) (ratio); bacterial display of known human phosphotyrosine sites (pTyr-Var adds point mutants) read by sequencing; higher = stronger binding; tyrosines were phosphorylated by kinases first
Conditions in all cases: peptide library: pTyr-Var
SHP2 C-SH2 domain E139D = biological target: SHP2 C-SH2 domain E139D
[1] = biological target: SHP2 C-SH2 domain wild-type
SHP2 N-SH2 domain L43F = biological target: SHP2 N-SH2 domain L43F
SHP2 N-SH2 domain T42A = biological target: SHP2 N-SH2 domain T42A
SHP2 N-SH2 domain T52S = biological target: SHP2 N-SH2 domain T52S
[2] = biological target: SHP2 N-SH2 domain wild-type

Measured: enrichment score
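Further: displayed peptides selected on beads carrying the immobilized SH2 domain, with library peptides lacking any tyrosine serving as negative controls.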

NPQKPYFIRLY [WAS_Y83_S82P]
inactive: SHP2 C-SH2 domain E139D 0.747 | [1] 0.709 | SHP2 N-SH2 domain L43F 0.551 | SHP2 N-SH2 domain T42A 0.559 | SHP2 N-SH2 domain T52S 0.584 | [2] 0.799

TFGNLYGSRKQ [YIPF7_Y59_A54T_YF]
inactive: SHP2 C-SH2 domain E139D 0.555 | [1] 0.321 | SHP2 N-SH2 domain L43F 0.405 | SHP2 N-SH2 domain T42A 0.438 | SHP2 N-SH2 domain T52S 0.349 | [2] 1.16

QAEELYFGKMG [YES1_Y159_W158L]
inactive: SHP2 C-SH2 domain E139D 0.97 | [1] 1.08 | SHP2 N-SH2 domain L43F 1.1 | SHP2 N-SH2 domain T42A 0.799 | SHP2 N-SH2 domain T52S 1.3 | [2] 1.11

HIKHNYECLVF [XRCC5_Y416_YF]
inactive: SHP2 C-SH2 domain E139D 1.89 | [1] 2.47 | SHP2 N-SH2 domain L43F 1.69 | SHP2 N-SH2 domain T42A 2.36 | SHP2 N-SH2 domain T52S 2 | [2] 2.02

KMKGDYFRFLA [YWHAG_Y130_YF]
inactive: SHP2 C-SH2 domain E139D 2.12 | [1] 1.98 | SHP2 N-SH2 domain L43F 2.29 | SHP2 N-SH2 domain T42A 2.22 | SHP2 N-SH2 domain T52S 2.11 | [2] 1.89

KMKGEYYRYLA [YWHAG_Y130_D129E]
inactive: SHP2 C-SH2 domain E139D 2.74 | [1] 2.53 | SHP2 N-SH2 domain L43F 2.62 | SHP2 N-SH2 domain T42A 1.96 | SHP2 N-SH2 domain T52S 2.41 | [2] 2.17

EAAFVYAISSA [WNT4_Y113]
inactive: SHP2 C-SH2 domain E139D 0.765 | [1] 0.729 | SHP2 N-SH2 domain L43F 0.799 | SHP2 N-SH2 domain T42A 0.729 | SHP2 N-SH2 domain T52S 0.63 | [2] 0.952

TTKGAYSLSIR [YES1_Y194]
inactive: SHP2 C-SH2 domain E139D 0.694 | [1] 0.602 | SHP2 N-SH2 domain L43F 0.705 | SHP2 N-SH2 domain T42A 0.565 | SHP2 N-SH2 domain T52S 0.992 | [2] 0.597

IEPCIYIPEDD [XPNPEP3_Y455_G453C]
inactive: SHP2 C-SH2 domain E139D 0.784 | [1] 1 | SHP2 N-SH2 domain L43F 0.757 | SHP2 N-SH2 domain T42A 0.762 | SHP2 N-SH2 domain T52S 0.867 | [2] 0.843

NGEDLYAGSTD [XRCC1_Y515_P514L]
inactive: SHP2 C-SH2 domain E139D 0.393 | [1] 0.399 | SHP2 N-SH2 domain L43F 0.429 | SHP2 N-SH2 domain T42A 0.438 | SHP2 N-SH2 domain T52S 0.544 | [2] 0.472

VEDDMYRKTCT [XPA_Y257_L252V]
inactive: SHP2 C-SH2 domain E139D 0.861 | [1] 0.881 | SHP2 N-SH2 domain L43F 0.735 | SHP2 N-SH2 domain T42A 0.774 | SHP2 N-SH2 domain T52S 0.709 | [2] 1.24

HVKHNYECLVF [XRCC5_Y416_I412V_YF]
inactive: SHP2 C-SH2 domain E139D 2.28 | [1] 2.03 | SHP2 N-SH2 domain L43F 1.89 | SHP2 N-SH2 domain T42A 2.77 | SHP2 N-SH2 domain T52S 1.71 | [2] 2.63

NPQKSCFIRLY [WAS_Y83_Y83C]
inactive: SHP2 C-SH2 domain E139D 0.891 | [1] 1.03 | SHP2 N-SH2 domain L43F 0.946 | SHP2 N-SH2 domain T42A 0.756 | SHP2 N-SH2 domain T52S 0.752 | [2] 0.988

NPQKSYLIRLF [WAS_Y83_F84L_YF]
inactive: SHP2 C-SH2 domain E139D 0.961 | [1] 0.972 | SHP2 N-SH2 domain L43F 1.05 | SHP2 N-SH2 domain T42A 0.789 | SHP2 N-SH2 domain T52S 0.848 | [2] 0.844

LEDDVYRKTCT [XPA_Y257_M256V]
inactive: SHP2 C-SH2 domain E139D 0.722 | [1] 0.838 | SHP2 N-SH2 domain L43F 0.746 | SHP2 N-SH2 domain T42A 0.586 | SHP2 N-SH2 domain T52S 0.725 | [2] 0.772

LSALDYKIFFF [WDPCP_Y210_YF]
inactive: SHP2 C-SH2 domain E139D 0.682 | [1] 0.843 | SHP2 N-SH2 domain L43F 0.711 | SHP2 N-SH2 domain T42A 0.588 | SHP2 N-SH2 domain T52S 0.84 | [2] 0.841

GLALRYLSDHS [VWF_Y1584]
inactive: SHP2 C-SH2 domain E139D 0.967 | [1] 0.675 | SHP2 N-SH2 domain L43F 1.02 | SHP2 N-SH2 domain T42A 0.737 | SHP2 N-SH2 domain T52S 0.839 | [2] 0.931

KLCHLYQDHMQ [WNT5A_Y86]
inactive: SHP2 C-SH2 domain E139D 1.68 | [1] 1.81 | SHP2 N-SH2 domain L43F 1.74 | SHP2 N-SH2 domain T42A 1.45 | SHP2 N-SH2 domain T52S 1.55 | [2] 1.64

PTKNDYWAMPA [WWOX_Y287_L291P]
inactive: SHP2 C-SH2 domain E139D 0.848 | [1] 0.63 | SHP2 N-SH2 domain L43F 0.65 | SHP2 N-SH2 domain T42A 0.674 | SHP2 N-SH2 domain T52S 0.539 | [2] 0.602

WAMLAYNRSKL [WWOX_Y293]
inactive: SHP2 C-SH2 domain E139D 1.01 | [1] 0.771 | SHP2 N-SH2 domain L43F 0.838 | SHP2 N-SH2 domain T42A 0.901 | SHP2 N-SH2 domain T52S 0.902 | [2] 0.935

NPQKSYFILLY [WAS_Y83_R86L]
inactive: SHP2 C-SH2 domain E139D 0.665 | [1] 0.751 | SHP2 N-SH2 domain L43F 0.528 | SHP2 N-SH2 domain T42A 0.595 | SHP2 N-SH2 domain T52S 0.702 | [2] 0.714

NPQKSYFICLF [WAS_Y83_R86C_YF]
inactive: SHP2 C-SH2 domain E139D 1.64 | [1] 1.58 | SHP2 N-SH2 domain L43F 1.54 | SHP2 N-SH2 domain T42A 1.12 | SHP2 N-SH2 domain T52S 1.25 | [2] 1.47

NPQKSYFILLF [WAS_Y83_R86L_YF]
inactive: SHP2 C-SH2 domain E139D 1.24 | [1] 1.22 | SHP2 N-SH2 domain L43F 1.37 | SHP2 N-SH2 domain T42A 1.29 | SHP2 N-SH2 domain T52S 1.12 | [2] 1.19

CVAARYMDVKG [WFIKKN2_Y93]
inactive: SHP2 C-SH2 domain E139D 0.762 | [1] 1.02 | SHP2 N-SH2 domain L43F 0.852 | SHP2 N-SH2 domain T42A 0.476 | SHP2 N-SH2 domain T52S 0.827 | [2] 1.31

AEFGLYRAMVR [VSX2_Y222_G223R_YF]
inactive: SHP2 C-SH2 domain E139D 0.71 | [1] 0.708 | SHP2 N-SH2 domain L43F 0.757 | SHP2 N-SH2 domain T42A 0.648 | SHP2 N-SH2 domain T52S 0.756 | [2] 0.839

NPQKSYFIRLF [WAS_Y83_YF]
inactive: SHP2 C-SH2 domain E139D 0.877 | [1] 0.745 | SHP2 N-SH2 domain L43F 0.62 | SHP2 N-SH2 domain T42A 0.761 | SHP2 N-SH2 domain T52S 0.703 | [2] 0.784

LSALDYKIFYY [WDPCP_Y210]
inactive: SHP2 C-SH2 domain E139D 1.08 | [1] 1.08 | SHP2 N-SH2 domain L43F 1.04 | SHP2 N-SH2 domain T42A 0.997 | SHP2 N-SH2 domain T52S 1.19 | [2] 1.41

WEQELYSQLVY [WAS_Y102]
inactive: SHP2 C-SH2 domain E139D 1.05 | [1] 0.864 | SHP2 N-SH2 domain L43F 1.09 | SHP2 N-SH2 domain T42A 0.883 | SHP2 N-SH2 domain T52S 1.08 | [2] 0.931

RGEAVYSRDCV [XPC_Y676]
inactive: SHP2 C-SH2 domain E139D 0.691 | [1] 0.682 | SHP2 N-SH2 domain L43F 0.477 | SHP2 N-SH2 domain T42A 0.54 | SHP2 N-SH2 domain T52S 0.467 | [2] 0.699

AEYGLYGAMVW [VSX2_Y222_R227W]
inactive: SHP2 C-SH2 domain E139D 0.688 | [1] 0.887 | SHP2 N-SH2 domain L43F 0.956 | SHP2 N-SH2 domain T42A 0.727 | SHP2 N-SH2 domain T52S 0.668 | [2] 1.31

AEYGLYRAMVR [VSX2_Y222_G223R]
inactive: SHP2 C-SH2 domain E139D 0.802 | [1] 0.962 | SHP2 N-SH2 domain L43F 0.771 | SHP2 N-SH2 domain T42A 0.975 | SHP2 N-SH2 domain T52S 0.611 | [2] 0.897

HIKHNYECLVY [XRCC5_Y416]
inactive: SHP2 C-SH2 domain E139D 1.49 | [1] 1.49 | SHP2 N-SH2 domain L43F 1.55 | SHP2 N-SH2 domain T42A 1.07 | SHP2 N-SH2 domain T52S 1.1 | [2] 1.41

NPQKSCFIRLF [WAS_Y83_Y83C_YF]
inactive: SHP2 C-SH2 domain E139D 0.913 | [1] 0.88 | SHP2 N-SH2 domain L43F 0.802 | SHP2 N-SH2 domain T42A 0.676 | SHP2 N-SH2 domain T52S 0.765 | [2] 1

KMKGDYFRSLA [YWHAG_Y130_Y133S_YF]
inactive: SHP2 C-SH2 domain E139D 0.674 | [1] 0.778 | SHP2 N-SH2 domain L43F 0.664 | SHP2 N-SH2 domain T42A 0.703 | SHP2 N-SH2 domain T52S 0.718 | [2] 0.579

NPQKSYFIHLF [WAS_Y83_R86H_YF]
inactive: SHP2 C-SH2 domain E139D 1.57 | [1] 1.77 | SHP2 N-SH2 domain L43F 1.58 | SHP2 N-SH2 domain T42A 1.7 | SHP2 N-SH2 domain T52S 1.24 | [2] 1.64

LKLWDYSRGRC [WDR5B_Y239]
inactive: SHP2 C-SH2 domain E139D 0.935 | [1] 1.29 | SHP2 N-SH2 domain L43F 0.794 | SHP2 N-SH2 domain T42A 1.12 | SHP2 N-SH2 domain T52S 0.962 | [2] 1.08

NPQKSYFICLY [WAS_Y83_R86C]
inactive: SHP2 C-SH2 domain E139D 0.942 | [1] 1.16 | SHP2 N-SH2 domain L43F 0.809 | SHP2 N-SH2 domain T42A 0.805 | SHP2 N-SH2 domain T52S 0.807 | [2] 1.24
